We go through 25 compounds from the antibiotic and cytotoxicity screens of Wong et al. (2023).

The subject of assay [1] is HSkMC (human skeletal muscle cells). The experiment in a line: cytotoxicity call (relative viability < 0.9). As to conditions: 10 µM.
The subject of assay [2] is HepG2. Kind of assay: cytotoxicity call (relative viability < 0.9). The note with it: 10 µM.
The test system of assay [3] is S. aureus RN4220. Kind of assay: growth inhibition call (relative growth <= 0.2). As to conditions: 50 µM.

This is one part of the list.

As to `COc1ccc(S(=O)(=O)N(C)C[C@@H]2OCCCC[C@H](C)Oc3ccc(NC(=O)Nc4c(C)noc4C)cc3C(=O)N([C@H](C)CO)C[C@H]2C)cc1`, the cytotoxicity call in assay [1] and in assay [2] was “inactive” each time. The growth inhibition call in assay [3] is “inactive”.

Take `C[C@@H]1CN([C@@H](C)CO)C(=O)c2cc(NC(=O)c3ccncc3)ccc2O[C@@H](C)CCCCO[C@@H]1CN(C)C(=O)Nc1cccc2ccccc12`: the cytotoxicity call in assay [1] and in assay [2] was “inactive” each time. Besides, the growth inhibition call in assay [3] was “inactive”.

As for `CN1CCN(C(=O)C[C@@H]2CC[C@H]3[C@@H](COC[C@@H](O)CN3S(=O)(=O)c3cccc(F)c3)O2)CC1`, the cytotoxicity call in assay [1] and in assay [2] was “inactive” throughout. Besides, the growth inhibition call in assay [3] was “inactive”.

Turning to `O=c1[nH]c(=O)c2[nH]c(=O)[nH]c2[nH]1`, the cytotoxicity call in assay [1] and in assay [2] was “inactive” each time. Also, in assay [3], the growth inhibition call is “inactive”.

On to `C[C@@H]1CN([C@@H](C)CO)C(=O)CCCn2nncc2CO[C@H]1CN(C)C(=O)CCCN(C)C`, for which the cytotoxicity call in assay [1] and in assay [2] was “inactive” throughout. The growth inhibition call in assay [3] is “inactive”.

As for `C[C@H]1CN([C@@H](C)CO)S(=O)(=O)c2ccc(C#CC3CC3)cc2O[C@H]1CN(C)C(=O)C1CCCCC1`, the cytotoxicity call in assay [1] and in assay [2] was “inactive” throughout. The growth inhibition call in assay [3] was “inactive”.

On to `C[C@@H]1CN([C@@H](C)CO)C(=O)CCCn2nncc2CO[C@H]1CN(C)C(=O)Nc1ccc(N2CCN(C)CC2)cc1`, for which the cytotoxicity call in assay [1] and in assay [2] was “inactive” throughout. In addition, the growth inhibition call in assay [3] is “inactive”.

For the compound `C[C@H](CO)N1C[C@H](C)[C@H](CN(C)Cc2ccc(C(=O)Nc3ccccc3N)cc2)Oc2ccc(NS(C)(=O)=O)cc2C1=O`, the cytotoxicity call in assay [1] and in assay [2] was “inactive” in each case. In addition, in assay [3], the growth inhibition call is “inactive”.

On to `Cc1ccc(S(=O)(=O)N(C)C[C@H]2OCCCC[C@H](C)Oc3ccc(NC(=O)Nc4c(C)noc4C)cc3C(=O)N([C@H](C)CO)C[C@H]2C)cc1`, for which the cytotoxicity call in assay [1] and in assay [2] was “inactive” throughout. The growth inhibition call in assay [3] was “inactive”.

For the compound `C[C@H]1CN([C@@H](C)CO)C(=O)c2cccc(NC(=O)c3ccncc3)c2O[C@H]1CN(C)Cc1ccc(Oc2ccccc2)cc1`, the cytotoxicity call in assay [1] and in assay [2] was “inactive” each time. The growth inhibition call in assay [3] was “inactive”.

Take `C[C@H]1CN([C@@H](C)CO)C(=O)c2cc(NC(=O)Nc3cccc4ccccc34)ccc2O[C@@H]1CN(C)C(=O)Nc1ccccc1`: the cytotoxicity call in assay [1] and in assay [2] was “inactive” throughout. Moreover, the growth inhibition call in assay [3] is “inactive”.

`CSc1cnc2c(=O)[nH]c(=O)n(C)c2n1`: the cytotoxicity call in assay [1] and in assay [2] was “inactive” each time. Also, the growth inhibition call in assay [3] is “inactive”.

As for `COc1ccc(CN(C)C[C@@H]2Oc3ccc(NC(=O)Cn4cnnn4)cc3C(=O)N([C@@H](C)CO)C[C@H]2C)cc1`, the cytotoxicity call in assay [1] and in assay [2] was “inactive” throughout. The growth inhibition call in assay [3] is “inactive”.

`C[C@H](CO)N1C[C@H](C)[C@H](CN(C)Cc2ccc(C(=O)Nc3ccccc3N)cc2)OCc2cn(nn2)CCCC1=O`: the cytotoxicity call in assay [1] and in assay [2] was “inactive” throughout. In addition, the growth inhibition call in assay [3] was “inactive”.

As for `C[C@H](CO)N1C[C@H](C)[C@H](CN(C)S(C)(=O)=O)Oc2ccc(NC(=O)Cn3cnnn3)cc2C1=O`, the cytotoxicity call in assay [1] and in assay [2] was “inactive” throughout. Further, the growth inhibition call in assay [3] is “inactive”.

Regarding `C[C@@H]1CCCCO[C@@H](CN(C)Cc2ccc(C(F)(F)F)cc2)[C@H](C)CN([C@H](C)CO)C(=O)c2cc(NC(=O)NC3CCCCC3)ccc2O1`, the cytotoxicity call in assay [1] is “inactive”. Besides, the cytotoxicity call in assay [2] was “active”. In addition, the growth inhibition call in assay [3] is “inactive”.

On to `O=S1(=O)N[C@H]2CCCN2c2ccccc21`, for which the cytotoxicity call in assay [1] and in assay [2] was “inactive” in each case. Moreover, in assay [3], the growth inhibition call was “inactive”.

For the compound `CCCC#Cc1ccc2c(c1)O[C@H](CN(C)Cc1ccc3c(c1)OCO3)[C@H](C)CN([C@@H](C)CO)S2(=O)=O`, the cytotoxicity call in assay [1] and in assay [2] was “inactive” throughout. Also, the growth inhibition call in assay [3] is “inactive”.

In the case of `C[C@@H]1CN([C@H](C)CO)C(=O)c2cc(NC(=O)Nc3ccc(F)cc3)ccc2O[C@H]1CN(C)C(=O)Nc1cccc2ccccc12`, the cytotoxicity call in assay [1] and in assay [2] was “inactive” in each case. Also, in assay [3], the growth inhibition call is “inactive”.

As for `CC(C)CC#Cc1ccc2c(c1)O[C@H](CN(C)C(=O)c1ccccn1)[C@@H](C)CN([C@@H](C)CO)S2(=O)=O`, the cytotoxicity call in assay [1] and in assay [2] was “inactive” in each case. Further, in assay [3], the growth inhibition call was “inactive”.

Take `C/C=C/c1cccc(-c2nc(C(=O)NCc3ccc(OC)cc3)cc3c2[C@H](CCO)N([S@@](=O)C(C)(C)C)C3)c1`: the cytotoxicity call in assay [1] and in assay [2] was “inactive” throughout. For the same compound, the growth inhibition call in assay [3] is “inactive”.

On to `Cc1noc(C)c1NC(=O)Nc1ccc2c(c1)C(=O)N([C@H](C)CO)C[C@H](C)[C@H](CN(C)C(=O)Nc1ccccc1)OCCCC[C@@H](C)O2`, for which the cytotoxicity call in assay [1] and in assay [2] was “inactive” each time. Moreover, the growth inhibition call in assay [3] is “inactive”.

Consider `Cc1ccc(S(=O)(=O)Nc2ccc3c(c2)CC(=O)N([C@@H](C)CO)C[C@H](C)[C@@H](CN(C)C(=O)Nc2ccc(C(F)(F)F)cc2)O3)cc1`, for which the cytotoxicity call in assay [1] and in assay [2] was “inactive” each time. For the same compound, the growth inhibition call in assay [3] was “inactive”.

With `CCOC(=O)c1ccc(CNS(=O)(=O)c2ccc(S(=O)(=O)N3CCOCC3)cc2)o1`, the cytotoxicity call in assay [1] and in assay [2] was “inactive” throughout. Besides, the growth inhibition call in assay [3] was “inactive”.

Consider `COc1ccc([C@@H]([C@H](Cc2ccccc2)OC(C)=O)N2C[C@@H](OC(C)=O)[C@@H]3[C@H]([C@@H]2Cc2ccccc2)N(C)O[C@H]3c2ccccc2)cc1`, for which the cytotoxicity call in assay [1] and in assay [2] was “inactive” each time. In addition, in assay [3], the growth inhibition call was “inactive”.
